# Experimental data taken from PubChem BioAssay (NCI).
#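 48-hour exposure; five concentrations; linearly interpolated endpoints. At the GI50, growth is halved. TGI: concentration producing complete growth inhibition.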
# System: NCI-H322M lung
# Experiment: NCI anticancer screen, dose series, 48 h
SMILES,GI50,TGI
CC1(C)CC[C@]2(C(=O)O)CC[C@]3(C)C(=CCC4[C@@]5(C)C[C@@H](O)[C@@H]6OC(c7ccc(F)cc7)OC[C@@]6(C)C5CC[C@]43C)C2C1 (stereo partly drawn),3.91 µM,22.3 µM
CC(=O)Nc1nc(-c2ccc(N3CCN(C)CC3)c(NS(=O)(=O)c3ccc(C(F)(F)F)cc3)c2)cs1,7.7 µM,14.8 µM
CC(C)(C)Nc1nc2cc(Cl)c(Cl)cc2nc1S(C)(=O)=O,15.7 µM,29.3 µM
Cc1cc(N=C2NC(=O)S/C2=C\c2ccc(F)cc2)n[nH]1,3.27 µM,> 100 µM
